The values that follow come from US20150065381A1.

The source holds more than one record for some entries. The other results are left out here. There may be further records. Results that share an entry read as repeated measurements on other runs, samples or individuals.

In the assay the target is HIV-1 JRCSF envelope (HIV-1) (UniProt P20871). Description: capture ELISA, plate 1, mAb 0.3 ug/ml. Background: ELISA stands for enzyme-linked immunosorbent assay.

On to PGT151 (antibody), for which the ELISA OD is 0.057 OD and 0.176 OD [columns of one line].
